This passage reports self-cleavage results from the RNAGym collection of RNA variant scans (doi:10.1093/nar/gkz1192).

The chains are these.
B1: CPEB3 Ribozyme (parent)
chain: UAACAGGGGGCCACAGCAGAAGCGUUCACGUCGCAGCCCCUGUCAGAUUCUGGUGAAUCUGCGAAUUCUGCUGUAUAUCUC

The source gives no read counts; variants with many changes may rest on few reads.

The data set covers variants of B1. In words: self-cleavage, relative activity (ratio to wild type); higher = more cleavage; in vitro, sequencing. Put shortly:
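Relative activity compares each variant's cleaved/total read fraction with that of the unmutated ribozyme. To get these fractions, barcoded CPEB3 ribozyme libraries from rounds of error-prone PCR were transcribed with T7 RNA polymerase for 5 hours at 37°C and then given 15 min of DNase I treatment before EDTA was added. The RNAs were reverse transcribed with template switching and sequenced on Illumina, and DNA sequencing linked barcodes to variants. A minimum of 5 reads applied, and three batches were averaged.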
On to UAACAGGGGACCACAGCGGAAGCGUUCACGUCGCAGCCCCUGUCGGAUUCUGGCGAAUCUGCGGAUUCUGCUGUAUACCUC, for which the self-cleavage was found to be 0.06.
For UAACAGGGUGCCACAGCAGAAGCGUUCACGUCGCAGCCCCUGUCAGAUUCUGGUGAAUCAGCGAAUUCUGCUGUAUUUCUC, the self-cleavage turned out to be 0.
Then UAACAGGGUGCCACAGCAGAAGCGUUCACGUCGCAGCCCCUGUCAGAUCCUGGUGAAUCUGCGAACUCUGCUGUAUAUCUC, with 0.08; and UAACAGGGGACCGCAGCAGAAGCGUUCACGUCGCAGCCUCUGUCAGAUUCUGGUGAAUCUGCGAAUUCUGCUGUAUGUCUC, with 0.3; and UAACAGGGUGCCACAGCAGAAGCGUUCACGUCGCAGCCCCUGUCAGACUCUGGUGAACCUGCGAAUUCUGCUGUAGAUCUC, with 0.06.
Take UAACAGGGGACCGCAGCAGAUGCGUUCACGUCGCAGCCCCUGUCAGAUUCUGGCGUAUCUGCGAACUCUGCAGUAUAUCUC: the self-cleavage was determined as 0.03.
For the variant UAACAGGGGACCACUGCAGAAGCGUUCACGUCGCUGCCCCUGUCAGAUUCUGGUGAAUCUGCGAAUUCUGCUGUAUUUCUC, the self-cleavage was found to be 0.22.
Regarding UAACAGGGGACCACAGCGGAAGCGUUCACGUCGCAGCCCUUGGCAGAUUCUGGUGAAUCUGCGAAUUCUGCUGUAUAUCUC, the self-cleavage turned out to be 0.06.
UAACAGGGGACCUCAGCGGAAGCGUUCAUGUCGCAGCCCCUGUCAGAUUCUGGGGAAUCUGCGAAUUCCGCUGUGUAUCUC: the self-cleavage stood at 0.05.
Regarding UAACAGGGGACCACGGCAGAAGCGUUCACGUCGCAGCCCCAGUCAGAUUCUGGUGAAUCUGCGAAUCCUGCUGUAUAUCUC, the self-cleavage amounted to 0.03.
Then UAACAGGGGACCACGGCAGAAGCGUUCACGUCGCAGCCCCCGUCAGAUUCUGGUGAAUCUGCGAAUUCUGCUGUAUAUCUC, with 0.13.
Consider UAACAGGGGACCACAGCGGGAGCGUUCACGUCGCAGCCCCUGUCAGAUUCUGGUGAAUCUGCGAAUCCUGCUGUAUAUCCC, for which the self-cleavage is 0.06.
For UAACAGGGGACCACUGCAGAAGCGUUCACGUCGCAGCCCCUGUCAGAUUCUGGUGAAUCUGCGAACUCUGCUGUAUAUCUC, the self-cleavage amounted to 0.04.
In the case of UAACAGGGGACCUCAGCAGAAGUGUUCACGUCGCAACCCCCGGCAGAUUCUGGUGAAUCUGCGAAUUCUGCUGUAUAUCUC, the self-cleavage turned out to be 0.04.
For UAACAGGGGACCACAGCGGAAGCGUCCUCGUCGCAGCCCCCGUCAGAUUCAGGUGAAUCUGCGAAUUCUGCUGUAUAUCUC, the self-cleavage turned out to be 0.07.
On to UAACAGGGUGCCACAGCAGAAGCGUUCACGUCGCAGCCCCUGUCAGAUCCUGGUGAAUCUGCGGAUUCUGCAGUUUAUCUC, for which the self-cleavage stood at 0.05.
For UAACAGGGGACCACAGCGGAAGCGCUCACGUCGCAGCCCCGGUCAGAUUCUGGUGAAUCUGCGAAUUCUGCGGUAUACCUC the value was 0.04.
In the case of UAACAGGGGACCACUGCAGAAGCGUUCACGUCGCAGCCCCUGUCAGACUCUGGUGAUUCUGCGAAUUCUGCUGUAUAUCUC, the self-cleavage is 0.23.
As to UAACAGGGUGCCACAGCAGAAGCGUUCACGUCGCAGCCCCUGUCAGAUUCUGGCGAAUCUGCGGAUUCUGCUGUAUAUCUC, the self-cleavage was 0.18.
Regarding UAACAGGGGACCACUGCAGAAGCGUUCACGUCGCAGCCCCUGUCAGACUCUGGUGAAUCCGCGAAUUCUGCUGUAUACCUC, the self-cleavage was 0.08.
As to UAACAGGGGACCGCAGCAGAAGCGUUCACGUCGCAGCUCCUGUCAGAUUCUGGUGAAUCUGCGAAUACUGCUGUAUAUCCC, the self-cleavage was determined as 0.05.
As to UAACAGGGUGCCACAGCAGAAGCGUUCACGUCGCAGCCCCUGUCAGAUUCUGGUGAAUCUGCGAAUUCUGCUGUACGUCUC, the self-cleavage is 0.19.
UAACAGGGGACCACAGCGGAAGCGUUCACGCCGCAGCCCCUGUCAGAUUCUGGUGAAUCUGCGAAUUCUGCUGUAUAUCUC: the self-cleavage was 0.17.
For UAACAGGGGACCGCGGCAGAAGCGUUCACGUCGCAGCCCCUGUCUGAUUCUGGUGAAUCUGCGAAUUCUGCUGAAUAUCGC the value was 0.03; for UAACAGGGGACCUCAGCAGGAGCGCUCACGUCGCAGCCCCUGUCAGAUUCUGGUGAAUCUGCGAAUUCUGCUGUAUAUCUC, 0.05.
UAACAGGGGACCACUGCAGAAGCGUUCACGUCGCAGCCCCUGUCGGAUACUGGUGAAUCUGCGAAUUCUGCCGUAUAUCUC: the self-cleavage worked out at 0.13.
Take UAACAGGGGACCACUGCAGAAGCGUUCACGUCGCAGCCCCUGUCAGAUUCUGGUGAAUCUGCGAACUCUGCCGUAUAUCUC: the self-cleavage is 0.07.
In the case of UAACAGGGGACCGCAGCAGAAGCGUUCACGUCGCAGCCCCUGUCAGAUACUGGUGAAUCUGCGAAUUCUGCUGUAUAUCUC, the self-cleavage came out at 0.05.
As to UAACAGGGGACCACAGCGGAAGCGACCACGUCGCAGCCCCUGUCUGGUUCUGGUGAAUCUGCGAAUUCAGCUGUAUAUCUC, the self-cleavage stood at 0.03.
Turning to UAACAGGGUGCCACAGCAGAAGCGUUCACGUCGCAGCCCCUGUCAGACCCUGGUGAAUCUGCGAAUCCUGCUGUAUAUCUC, the self-cleavage came to 0.06.
For UAACAGGGGACCACCGCAGAAGCGUUCACGUCGCAGCCCCUGUCAGAUCCUGGUGAAUCUGCGAAUUCUGCUGUAUAUCUC the value was 0.36; for UAACAGGGGACCUCAGCAGAAGCGUGCACGUCGCGGCCCCUGCCAGGUACUGGUGAAUCUGCGAAUUCUGCUGUAUAUCUC, 0.06.
With UAACAGGGGACCACCGCAGAAGCGUUCACGACGCAGCCCCUCUCAGAUUCUGGUGAAUCUGCGAAUUCUGCUGUAUAUCUC, the self-cleavage is 0.06.
As to UAACAGGGGACCACAGCCGAAGCGUUCGCGUCGCAGCCCCUGUCAGAUUCUGGUGAAUCUGCGAAUUCUGCUUUAUAUCUC, the self-cleavage was found to be 0.06.
